In PubChem BioAssay AID2202238 (Ras Initiative Chemistry Research Team, Frederick National …, 2025):
The list shows a part of the results. The main result of the screen is listed elsewhere. These columns were measured beside it and carry no call.

Molecular target: GTPase KRas (Homo sapiens) (UniProt P01116)
Assay: Fragment capture on engineered cysteines, share of protein labelled (AID 2202238)
Parameters: protein at 5 µM with 500 µM competing thiol for 1.5 h
Conditions: KRAS G12D cysteine mutants, disulfide tethering, MALDI-TOF labeling, stronger effect = higher value, fragment at 500 µM
[1] = measured here: G75C mutant labeling
[2] = measured here: H94C mutant labeling
[3] = measured here: I36C mutant labeling
[4] = measured here: L120C mutant labeling
[5] = measured here: M67C mutant labeling
[6] = measured here: M72C mutant labeling
[7] = measured here: N86C mutant labeling
[8] = measured here: P121C mutant labeling
[9] = measured here: S122C mutant labeling
[10] = measured here: S136C mutant labeling
[11] = measured here: G60C mutant labeling
[12] = measured here: N26C mutant labeling

Chain of UniProt P01116 (P01116 whole entry, looked up, the tested form may be a part): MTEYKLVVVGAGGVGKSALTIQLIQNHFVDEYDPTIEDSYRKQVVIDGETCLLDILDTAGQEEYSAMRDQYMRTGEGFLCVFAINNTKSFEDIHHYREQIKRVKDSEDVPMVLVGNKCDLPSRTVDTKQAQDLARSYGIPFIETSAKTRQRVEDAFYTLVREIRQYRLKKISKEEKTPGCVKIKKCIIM

SMILES	percent labeling [1]	percent labeling [2]	percent labeling [3]	percent labeling [4]	percent labeling [5]	percent labeling [6]	percent labeling [7]	percent labeling [8]	percent labeling [9]	percent labeling [10]	percent labeling [11]	percent labeling [12]
CNC(=O)N1CCC(NC(=O)CCS)CC1	9.8%	25%	34%	20.3%	28.6%	10.5%	20.7%	33.2%	27.9%	43.1%	–	–
O=C(CCS)NC1CCN(C2CCOC2=O)CC1 (stereo unspecified)	6.6%	32.4%	34%	28.6%	37.1%	12.2%	17.6%	31.9%	35.5%	46.5%	–	–
O=C(CCS)NC1CCN(Cc2ccc(Cl)cc2)CC1	17%	43.5%	60.6%	0%	53.3%	28.1%	33.3%	34.2%	28.9%	54.6%	–	–
O=C(NCCS)c1nc2ccccn2c1Br	23.9%	31.8%	22.7%	36.7%	28.4%	58.2%	22.3%	28.9%	21.1%	39.9%	32.2%	39.9%
O=C(CCS)NCCCN(C1CC1)S(=O)(=O)c1cccc(F)c1	14.5%	29.8%	29%	28.2%	33.3%	33.8%	21.3%	25.4%	27.3%	53.4%	–	–
O=C(CCS)NCc1cc(Br)cc(Cl)n1	13.9%	37.4%	40.2%	30.5%	47.8%	42.5%	30%	31.6%	30.8%	50.4%	–	–
Cc1ccn(-c2cccc(NC(=O)CCS)c2)n1	13.9%	25.3%	17.6%	20.9%	12.9%	33.8%	23.1%	16.5%	20.4%	41.2%	–	–
CC(C)(C)OC(=O)N1CCC(O)(C2CCN(C(=O)CCS)CC2)CC1	14.1%	24.3%	24.4%	26.2%	30.2%	19.1%	24.8%	28.2%	26.4%	45.9%	–	–
O=C(CCc1cnc2ccccc2c1)NCCS	25.4%	33.7%	47%	34.1%	41.4%	31.9%	25.5%	32.4%	29.1%	44.8%	44.1%	38.5%
COc1ccc(OC)c(-c2cc(C(=O)NCCS)no2)c1	19.1%	14.5%	12.1%	13.9%	11%	57.7%	12.4%	14.1%	9.8%	13.3%	26.2%	32.9%
Cc1c(-c2ccccc2)oc2c(C(=O)NCCS)cccc2c1=O	3.5%	13.5%	8%	3.5%	9.2%	20.9%	3.6%	3.3%	3.1%	16.3%	23.3%	27.7%
CC1Cn2nc(C(=O)NCCS)cc2C(=O)N1 (stereo unspecified)	15.8%	25.9%	21.3%	39.4%	31.4%	30.4%	25.2%	25.9%	30.5%	44.6%	27.3%	35.7%
O=C(CCCc1ncc(-c2ccccc2)o1)NCCS	19%	24.8%	17.1%	24.6%	40.2%	25.9%	14.7%	20.7%	19%	29.9%	30.5%	37.1%
Cn1cc([C@@H]2OCC[C@H]2C(=O)NCCS)cn1	7.1%	23.4%	23.5%	22.2%	27.9%	9.9%	17.6%	28.1%	24.5%	38.7%	16.2%	27.3%
O=C(CCc1nnc2ccc(Cl)nn12)NCCS	13.4%	30.4%	23%	43.2%	24.6%	16.2%	25.2%	32%	23.1%	29.6%	29.3%	32.4%
Cc1nc(COc2cccc(C(=O)NCCS)c2)no1	21.5%	42.2%	29.8%	43.9%	32.9%	54.3%	28%	27.5%	28.3%	48.3%	39.5%	44.8%
O=C(NCCS)c1cc2c(Br)cccc2cn1	23.3%	18.8%	11%	16.8%	17.7%	57.9%	13%	17.8%	9%	18.6%	29%	29.1%
Cc1ccc(NC(=O)C2(CNC(=O)CCS)CCCC2)cc1C	10%	28.1%	21.4%	18.3%	22.7%	21.6%	16.9%	23%	19.6%	34.9%	–	–
COc1cc(CCNC(=O)CCS)ccc1O	13.1%	34.5%	43.2%	30.9%	34%	29.3%	27.5%	39.6%	37.5%	57.6%	–	–
O=C(CCS)Nc1cccc(CN2CCCC2=O)c1	13.7%	40.9%	36.9%	34.6%	33.3%	33.5%	29%	32%	34%	54.6%	–	–
O=C(CCS)NCCn1ccc(C(F)(F)F)n1	10.6%	31.4%	33.2%	33.1%	29%	24.5%	28.3%	32.7%	37.2%	47%	–	–
Cc1nc(-c2cccc(C(=O)NCCS)c2)cs1	13.3%	23%	14.5%	22.9%	16.7%	50.3%	15.7%	20%	15.3%	28.3%	32%	41.1%
CC1(c2cccc(C(=O)NCCS)c2)NC(=O)NC1=O (stereo unspecified)	20.2%	43.4%	28.2%	48.4%	40.2%	50.4%	44.6%	34.6%	42.2%	51.6%	42.3%	50.8%

SMILES	percent labeling [1]	percent labeling [2]	percent labeling [3]	percent labeling [4]	percent labeling [5]	percent labeling [6]	percent labeling [7]	percent labeling [8]	percent labeling [9]	percent labeling [10]	percent labeling [11]	percent labeling [12]
Cn1c(C(=O)NCCS)c(Cl)c2ccccc21	20.5%	12.4%	7.6%	11.4%	8.3%	49.4%	10.5%	21.4%	9.1%	18.4%	30.5%	24.6%
O=C(NCCS)c1ccc(Cn2cc(Cl)cn2)o1	22.9%	34.1%	23.3%	38.4%	43.3%	42.7%	26%	25.1%	31.4%	47.2%	36.6%	39.5%
NC(=O)c1cc(NC(=O)CCS)cc(C(N)=O)c1	17.4%	26.7%	38.2%	33.9%	30.3%	34.3%	22.3%	35.1%	43.8%	46%	–	–
O=C(CCS)Nc1cccc(Cn2cccnc2=O)c1	8.2%	27.5%	32.4%	28.1%	31.7%	24.4%	24.4%	23.2%	30.4%	49.9%	–	–
CCOc1ccc2ccccc2c1C(=O)NCCS	23%	37.1%	20.1%	27.3%	27.2%	40.7%	19.9%	29.1%	17.8%	36.8%	65.3%	40.5%
O=C(CCS)NCc1ccn(-c2c(F)cccc2F)n1	14.7%	41%	38.5%	43.2%	39.4%	36.6%	36.3%	36.2%	43.2%	55.5%	–	–
COC(=O)C(Cc1cn(C)nc1C)NC(=O)CCS (stereo unspecified)	6%	21.4%	23.7%	23.9%	35.3%	9%	6.3%	27.4%	27.1%	39.3%	–	–
O=C(Cc1csc(-c2cnccn2)n1)NCCS	18.9%	32.7%	31.4%	57.5%	36.9%	42.7%	30.5%	34.6%	32%	43.9%	44.9%	41.1%
CCC(OC1CCCC(C)C1)C(=O)NCCS (stereo unspecified)	14.9%	27.1%	13.5%	28.8%	21.9%	17.5%	17.5%	22.1%	20.6%	44.3%	40.5%	28.3%
O=C(CCn1sc2ccccc2c1=O)NCCS	43.2%	16.8%	7.3%	15%	8.2%	12.5%	7.8%	9.3%	11.2%	9.4%	19.6%	8.7%
CC(C)c1ccc2c(c1)CC[C@H]1[C@](C)(CNC(=O)CCS)CCC[C@]21C	13.1%	80.6%	11.5%	6.3%	10.1%	18%	5.3%	9%	4%	31.1%	–	–
CC1(CNC(=O)CCS)CCS(=O)(=O)CC1	7.3%	29.7%	34.5%	32.8%	28.8%	9.7%	15.7%	31.2%	33%	42.6%	–	–
O=C(CCS)N1CCCN(C(=O)c2ccc[nH]c2=O)CC1	6%	22.1%	25.7%	24.7%	42.6%	10.1%	11.2%	28.8%	35.6%	46.4%	–	–
O=C(CCS)N1CCN(c2cncc3nnnn23)CC1	10.9%	0%	14.6%	0%	6.5%	2.8%	0%	9.4%	7.5%	0%	–	–
Cc1ccc(-c2cc(C(=O)NCCS)[nH]n2)cc1	11.7%	8.4%	8.3%	11.9%	6%	63.2%	7.7%	7.2%	6.2%	13.6%	7.2%	30.8%
O=C1CC(C(=O)NCCS)C2CCCCC2N1 (stereo unspecified)	11.1%	35.5%	24.5%	34.6%	33.4%	17.1%	24.5%	31.4%	29.4%	44.9%	21.6%	35.6%
CC1C(C(=O)NCCS)CCN1c1ccccc1 (stereo unspecified)	0%	6.6%	0%	0%	5.5%	0%	0%	7.3%	0%	9.8%	27.7%	5.3%
O=C(CCS)NC1CCC2(CC1)CC(O)C2 (stereo unspecified)	14%	33.4%	25.2%	28.4%	35.7%	25.9%	22.9%	38.2%	35.9%	50.8%	–	–
O=C(O)Cc1ccc(S(=O)(=O)N2CCC(C(=O)NCCS)CC2)cc1	15.7%	28.6%	21.8%	33.7%	22.8%	13.2%	23.3%	30.9%	28.4%	31.4%	28.4%	39.7%
COC(=O)c1cc(=O)[nH]c2c1CN(C(=O)CCS)CC2	10.6%	25.5%	34.3%	21.4%	31.5%	23.2%	21.1%	25.4%	29.1%	58.1%	–	–
COc1c(C)cnc(Cn2ccc(NC(=O)CCS)n2)c1C	18.3%	41.6%	39.8%	33.7%	33.5%	34.2%	37.7%	28.4%	26.4%	47.2%	–	–
COc1ccc2c(c1)c(C(=O)NCCS)c(C)n2C	8.6%	25.3%	13.7%	19.7%	19.3%	24.7%	15.4%	12.8%	13.6%	33.3%	33.7%	41.6%
O=C(CCS)N1CCN(C(=O)Nc2ccc(Cl)cc2)CC1	8.9%	18.1%	17.7%	14.5%	16.7%	14.9%	18.3%	18.6%	16.4%	30.1%	–	–
